Laboratory results as given in the supplement of paper PMC3334620.
Over roughly 33,000 sequences, “E-score (-0.5 to 0.5)” has its median near -0.04; the highest 2% begin near 0.36. This is one part of the list.

Molecular target: T1, Hmlalpha2 (UniProt P0CY09)
T1 sequence: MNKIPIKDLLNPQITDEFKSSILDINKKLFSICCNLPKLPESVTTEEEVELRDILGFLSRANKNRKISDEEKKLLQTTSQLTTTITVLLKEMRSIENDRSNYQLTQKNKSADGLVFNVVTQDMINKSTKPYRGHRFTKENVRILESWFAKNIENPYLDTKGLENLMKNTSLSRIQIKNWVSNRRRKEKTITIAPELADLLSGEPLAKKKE
Assay: PBM E-score (8-mer binding enrichment) (E-score (-0.5 to 0.5)); higher = stronger / more preferred TF binding; most listed sequences are background and not binding sites
Settings: protein concentration: 200 nM; construct: GST-full length
In short: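 PURExpress in vitro transcription/translation supplied GST-tagged yeast transcription factors, either full-length or DNA-binding domain. Applied at about 100-200 nM to universal all-10-mer Agilent arrays double-stranded by primer extension, the bound protein was detected with fluorescent anti-GST. E-scores, modified Wilcoxon-Mann-Whitney statistics, were given by the Universal PBM Analysis Suite to ungapped eight-base words pooled with their reverse complements after masliner normalisation.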

Row | Sequence | PBM E-score
1 | CTATATGA | 0.053
2 | TCCTGACA | 0.0397
3 | ACACCAAT | 0.127
4 | ATTCCTAG | -0.179
5 | CGGTGTGC | -0.266
6 | ACGGCTTG | -0.13
7 | TAAAAAAA | 0.191
8 | ACTGTACA | 0.242
9 | GGTTGAGA | -0.039
10 | ACTTCTAC | 0.235
11 | TATCTGGA | -0.16
12 | AGCGTGTC | 0.317
13 | CACGCCGC | 0.0764
14 | CGCCGACA | 0.0843
15 | AACGTGAG | 0.121
16 | AAGGCAGG | -0.162
17 | CAGCCAAC | -0.134
18 | CTATATAA | 0.0612
19 | AGCGGTAT | 0.123
20 | AATATTCT | -0.0233
21 | CAGAACTG | 0.0458
22 | CGGACCCA | -0.162
23 | AGGTCAAT | 0.0276
24 | GTGCATCA | -0.0186
25 | GGCAGCTA | -0.104

Row | Sequence | PBM E-score
26 | AGAGCGTC | -0.0864
27 | AAAGGCGA | -0.0613
28 | GGCGCTAC | -0.215
29 | ACACGGTG | 0.392
30 | CGGATCGA | -0.185
31 | CCAACCCA | -0.142
32 | ATTCAGGC | -0.0534
33 | CCACGGTC | -0.326
34 | ACGACCAT | -0.214
35 | GCTTCCAA | -0.0216
36 | CCGGTATA | 0.0399
37 | ACGGATCA | 0.0285
38 | AAATTCTA | 0.181
39 | AGTCAATA | 0.0743
40 | AGCGGCGA | -0.134
41 | GCTTTGCC | -0.273
42 | TTAACTAA | 0.345
43 | AACCTGGG | -0.158
44 | TCCCCACA | -0.283
45 | GCAAAGTA | 0.1
46 | CCCGCACA | -0.0612
47 | AAGGTTGT | 0.217
48 | GGGTTCTA | -0.284
49 | AAAGCTTG | 0.0544
50 | AAAAGCCC | -0.245

Row | Sequence | PBM E-score
51 | AGTGAGGA | -0.289
52 | CTTCTATA | 0.0651
53 | AATACCCT | -0.0975
54 | CATACGAG | -0.00242
55 | GCGCAGGA | -0.231
56 | CCTTACCC | -0.228
57 | CACTGACA | 0.169
58 | CATCAATG | -0.0383
59 | CTGTTCAC | 0.0138
60 | CTCCGGTA | -0.112
61 | AAAGTCTG | -0.00127
62 | TCAGCTCA | -0.113
63 | ATTACCCG | 0.0829
64 | ATGCTTCC | -0.0517
65 | ACACGGCA | 0.339
66 | CTCCGCTC | -0.21
67 | ACAGGCAG | -0.103
68 | ACACCTGA | 0.185
69 | GTTAGCGA | 0.113
70 | AAGGAATC | -0.128
71 | AGCCTCAA | -0.226
72 | GCCTTCTA | -0.161
73 | ACCTTATC | -0.0389
74 | AAGACGGT | -0.287
75 | CCGGTGGC | -0.397

Row | Sequence | PBM E-score
76 | GTTGTGCA | -0.00044
77 | AACTTCGT | 0.0882
78 | CCCACCCG | -0.176
79 | ACGGCATC | 0.00564
80 | ACCCAATG | -0.0835
81 | ATGTACTC | 0.304
82 | GTTTTTGA | 0.15
83 | ATGCGGCA | -0.106
84 | GCACTGGA | -0.225
85 | GATCGCTA | -0.102
86 | AAAGTAGA | -0.0055
87 | CTCAGGGA | -0.243
88 | GCCAATCC | -0.151
89 | CCTGCTCG | -0.21
90 | CTCGACGA | -0.223
91 | CGGCGGAG | -0.16
92 | AGAGTGCC | -0.257
93 | GCAATTTA | 0.164
94 | CTAAGGGC | -0.287
95 | AAACGCAT | 0.13
96 | TATGATAA | 0.213
97 | GTCTAATA | 0.222
98 | TCGGGAAA | -0.0258
99 | ATAATCAA | 0.00678
100 | ATTTGACA | 0.327

Row | Sequence | PBM E-score
101 | CCATCCGA | -0.148
102 | CGGATAAA | 0.0623
103 | CCCGACTA | -0.238
104 | AGGCTCGG | -0.305
105 | CAGCGCAC | -0.234
106 | ATTGCCGG | -0.104
107 | ACTTTACA | 0.429
108 | TATTGGAA | 0.15
109 | CGCTCTAC | 0.193
110 | AGAAACCG | -0.134
111 | GTCTGATA | -0.0071
112 | GCAGGGGC | -0.0353
113 | AACATGTT | 0.46
114 | CACGGAGA | -0.0771
115 | GCCGATAA | -0.188
116 | CTCCAGGA | -0.168
117 | CGGGCACA | -0.204
118 | CGACCGCC | -0.201
119 | TAAAATCA | 0.203
120 | ACCTCAAT | 0.0952
121 | AAGTGATA | -0.134
122 | AAGTTTCG | 0.00249
123 | TAATTGGA | 0.049
124 | AGTACTTG | 0.265
125 | CGATCAGA | -0.124

Row | Sequence | PBM E-score
126 | CGAATATA | -0.00331
127 | CAAGCCTC | -0.106
128 | TTCAGAAA | -0.0245
129 | ATGTAATG | 0.479
130 | AACAGGCC | -0.142
131 | CCAAACCC | -0.201
132 | ACGGCGGG | -0.123
133 | CGGGGCGC | -0.244
134 | GGAGCAAA | -0.115
135 | GGGTCAAA | -0.0776
136 | AGTCCCTA | -0.254
137 | ATAGGATA | 0.0006
138 | ATGCGCAG | -0.163
139 | GTTTCCAA | -0.146
140 | CTAACAAC | 0.225
141 | ACGTATAG | 0.129
142 | AACTTACC | -0.0186
143 | GACTAAAA | -0.0161
144 | GCTCCCAA | -0.146
145 | AAACGTGA | 0.168
146 | AGCAGTTG | -0.136
147 | GCTCGCCA | -0.129
148 | CATTTCAG | 0.0157
149 | GCCGCAGA | -0.278
150 | ACTGGTAA | 0.122

Row | Sequence | PBM E-score
151 | TAACAAAA | 0.292
152 | CACAGGCG | 0.034
153 | AAGCCAAT | 0.0102
154 | GGCCACAC | -0.191
155 | TCGTTGCA | 0.0513
156 | ACATTGTA | 0.304
157 | AATGCTTG | -0.0267
158 | GTCCGCCA | -0.307
159 | TTGCTAAA | 0.0913
160 | GCAGATGC | 0.017
161 | AGAGTTGC | -0.0989
162 | ACGTGGCT | 0.0222
163 | GGAAACAC | 0.119
164 | GCAAGGCA | -0.146
165 | CTCGATTA | 0.117
166 | CGGGCGTC | -0.187
167 | CGGAGAGC | -0.0282
168 | GAAAACTA | -0.00823
169 | ATATGGCC | -0.203
170 | AGCTAAAT | -0.00085
171 | CAAGGGTA | -0.123
172 | ATTGCCTC | -0.0708
